Drawing on publication PMC7588591, this text covers binding for one substance.

The chains behind the UniProt entries cited, without tags or fusion partners. Residues count along the entry.
UniProt Q7Z434, residues 360-540: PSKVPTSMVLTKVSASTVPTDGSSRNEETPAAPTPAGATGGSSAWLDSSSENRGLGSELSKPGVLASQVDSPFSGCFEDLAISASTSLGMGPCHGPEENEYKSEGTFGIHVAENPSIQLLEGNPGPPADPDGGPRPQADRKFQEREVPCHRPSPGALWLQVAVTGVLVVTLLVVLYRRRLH

For this assay, the target named is MAVS (360–540) (UniProt Q7Z434). Nature of the assay: co-IP.

These are yes or no findings as the source states them, for the method shown. Binding seen in cells or lysates may run through a third protein. Some results given as binding are weak or reduced against the parent protein; the word gives no strength.

Regarding “SARS-CoV-2 membrane glycoprotein M (tagged, transfected) (from UniProt P0DTC5 1-222)”, the binding result is reported as “binds”.
